The source of these data is paper PMC4336329 (PLoS ONE, 2015).

The whole screen tested about 310,000 compounds, of which about 2,200 (0.71%) showed an effect of 50% or more. The effect is printed as a negative number. The list shows a part of the results.

In this assay the target is human ether-à-go-go-related gene (hERG) potassium channel (human, UniProt Q12809). In words: primary screen, population patch clamp on CHO cells stably expressing hERG.
human ether-à-go-go-related gene (hERG) potassium channel, sequence (Q12809 whole entry, looked up): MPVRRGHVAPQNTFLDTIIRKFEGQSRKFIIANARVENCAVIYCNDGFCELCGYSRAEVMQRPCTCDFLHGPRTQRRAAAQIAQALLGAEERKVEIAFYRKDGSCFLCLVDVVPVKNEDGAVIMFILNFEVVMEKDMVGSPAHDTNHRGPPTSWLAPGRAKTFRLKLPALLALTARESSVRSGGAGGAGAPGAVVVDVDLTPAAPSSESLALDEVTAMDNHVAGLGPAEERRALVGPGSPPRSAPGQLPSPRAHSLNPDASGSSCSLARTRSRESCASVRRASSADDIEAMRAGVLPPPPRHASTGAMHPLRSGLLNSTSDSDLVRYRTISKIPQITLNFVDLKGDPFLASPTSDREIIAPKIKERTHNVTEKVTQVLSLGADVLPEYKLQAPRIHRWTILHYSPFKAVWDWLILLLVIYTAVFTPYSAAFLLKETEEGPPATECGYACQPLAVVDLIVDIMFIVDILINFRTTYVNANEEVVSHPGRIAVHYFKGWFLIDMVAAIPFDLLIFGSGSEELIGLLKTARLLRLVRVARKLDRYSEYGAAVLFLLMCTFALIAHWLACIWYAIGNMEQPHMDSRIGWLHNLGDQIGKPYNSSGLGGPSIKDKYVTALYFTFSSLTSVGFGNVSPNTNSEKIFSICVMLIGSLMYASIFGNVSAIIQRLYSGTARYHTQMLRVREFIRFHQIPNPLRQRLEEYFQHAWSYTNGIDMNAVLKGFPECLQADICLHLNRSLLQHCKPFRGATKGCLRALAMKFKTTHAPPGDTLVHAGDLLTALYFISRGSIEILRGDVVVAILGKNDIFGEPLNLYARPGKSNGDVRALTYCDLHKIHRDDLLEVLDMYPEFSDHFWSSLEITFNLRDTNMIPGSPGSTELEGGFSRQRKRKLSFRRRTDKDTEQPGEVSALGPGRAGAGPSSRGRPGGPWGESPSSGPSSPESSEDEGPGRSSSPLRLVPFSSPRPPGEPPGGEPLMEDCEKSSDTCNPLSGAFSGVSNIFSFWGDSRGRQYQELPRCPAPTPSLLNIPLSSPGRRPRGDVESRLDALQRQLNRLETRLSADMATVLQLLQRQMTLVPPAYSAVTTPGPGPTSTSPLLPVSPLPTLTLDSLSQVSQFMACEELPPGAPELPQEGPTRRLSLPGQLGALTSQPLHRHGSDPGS
Regarding `Cc1ccc(Cl)cc1NC(=O)C1CCCN(S(=O)(=O)c2c(C)noc2C)C1` (centres unmarked), the “hERG current change (%, negative = inhibition) at 1uM” value is recorded as 5.1%.

As for `O=C(CSc1nnc(Cc2cccs2)n1Cc1ccco1)Nc1cc(Cl)cc(Cl)c1`, the “hERG current change (%, negative = inhibition) at 1uM” value was -0.965%.

Turning to `CC1CCN(Cc2nc3c(c(=O)n(C)c(=O)n3C)n2CCc2ccccc2)CC1`, the “hERG current change (%, negative = inhibition) at 1uM” value worked out at 6.46%.

Take `CCCC(=O)Nc1ncnc2c1ncn2[C@@H]1O[C@@H]2OP(=O)([O-])OC[C@H]2[C@H]1OC(=O)CCC.O.[Na+]`: the “hERG current change (%, negative = inhibition) at 1uM” value was -0.145%.

Turning to `O=C(Nc1cc(C(F)(F)F)ccc1Cl)c1cc(C2CC2)on1`, the “hERG current change (%, negative = inhibition) at 1uM” value is 17.4%.

As to `CC(C)N1CCN(C(=O)c2ccc([N+](=O)[O-])cc2)CC1`, the “hERG current change (%, negative = inhibition) at 1uM” value is reported as -5.58%.

As for `COc1ccc(C(C#N)Nc2ccc(C)cc2)cc1` (centres unmarked), the “hERG current change (%, negative = inhibition) at 1uM” value is 11.6%.

Take `CC(C)(C)/C=N/NC(=O)C1CC1`: the “hERG current change (%, negative = inhibition) at 1uM” value amounted to 12.8%.

Take `Cc1nccn1S(=O)(=O)c1ccc(Br)cc1Br`: the “hERG current change (%, negative = inhibition) at 1uM” value came out at 7.99%.

As for `CC(=O)c1ccccc1N(C(=O)c1ccco1)C(C(=O)NC1CCCC1)c1ccc(C)cc1` (centres unmarked), the “hERG current change (%, negative = inhibition) at 1uM” value came to 9.35%.

`O=c1oc2ccccc2c(N2CCCCC2)c1CN1CCCCC1`: the “hERG current change (%, negative = inhibition) at 1uM” value turned out to be 4.58%.

On to `O=C(CSc1nnc(CNc2ccc(F)cc2)n1CC1CCCO1)Nc1ccccc1` (centres unmarked), for which the “hERG current change (%, negative = inhibition) at 1uM” value was -5.15%.

Regarding `Cc1ccc(CS(=O)Cc2ccc(C(=O)NCc3ccc(OC(C)C)cc3)o2)cc1` (centres unmarked), the “hERG current change (%, negative = inhibition) at 1uM” value turned out to be 10.3%.

Take `COc1cc(C(=O)NC(=S)N(CCc2ccccc2)CCc2ccccc2)cc(OC)c1OC`: the “hERG current change (%, negative = inhibition) at 1uM” value came out at 3.89%.

Take `Cc1ccc(C)c(Cn2nnc3c(=O)[nH]c(C4CCCN(C(=O)CC(C)C)C4)nc32)c1` (centres unmarked): the “hERG current change (%, negative = inhibition) at 1uM” value came to 4.11%.

Take `CCOc1ccc(CNS(=O)(=O)c2c(C)nc3sccn3c2=O)cc1OC`: the “hERG current change (%, negative = inhibition) at 1uM” value is recorded as -33.9%.

`COc1ccc(CCN(C)C(=O)C(CCSC)NC(=O)c2ccco2)cc1OC` (centres unmarked): the “hERG current change (%, negative = inhibition) at 1uM” value is 14.6%.

As for `Cc1ccc(NC(=O)Cn2nc(-c3ccco3)ccc2=O)cc1Cl`, the “hERG current change (%, negative = inhibition) at 1uM” value is recorded as 14.3%.

For the compound `COc1cccc(C(=O)NC(=O)Nc2cc(C)on2)c1`, the “hERG current change (%, negative = inhibition) at 1uM” value is reported as 10.3%.

Turning to `CCN(C(=O)C1CCN(S(=O)(=O)c2cccc3nonc23)CC1)c1ccccc1`, the “hERG current change (%, negative = inhibition) at 1uM” value is 10.6%.

Consider `CSc1cccc(NC(=O)COc2ccccc2)c1`, for which the “hERG current change (%, negative = inhibition) at 1uM” value is -2.44%.

As to `Cc1ccccc1N/C=C/C(=C(C#N)C#N)N(C)C`, the “hERG current change (%, negative = inhibition) at 1uM” value stood at 7.2%.

Turning to `Cc1ccc(NC(=O)CSCc2cc(=O)n3ccsc3n2)cc1`, the “hERG current change (%, negative = inhibition) at 1uM” value is given as 11.1%.

Regarding `Cc1ccc(OCCC(=O)OCC(=O)Nc2cc(C)nn2-c2ccccc2)cc1`, the “hERG current change (%, negative = inhibition) at 1uM” value was -2.61%.

For the compound `CN(CC1CCCCO1)C(=O)c1cc(COc2ccc(F)cc2Cl)on1` (centres unmarked), the “hERG current change (%, negative = inhibition) at 1uM” value is listed as -74.4%.

Take `Nc1nc(CC(=O)CSc2ccc(Cl)cc2)nc(Nc2ccc(F)cc2)n1`: the “hERG current change (%, negative = inhibition) at 1uM” value worked out at 15.9%.

Turning to `O=C(Nc1c2c(nn1-c1ccc(F)cc1)CS(=O)(=O)C2)c1ccc2c(c1)OCO2`, the “hERG current change (%, negative = inhibition) at 1uM” value is recorded as -0.113%.

With `COc1ccc(-n2c(-c3ccc(Cl)cc3)c[n+]3c2CCCCC3)cc1.[Br-]`, the “hERG current change (%, negative = inhibition) at 1uM” value amounted to 8.19%.

Regarding `Cc1cc(C(=O)N2CC(C)CC(C)C2)n(-c2ccccc2)n1` (centres unmarked), the “hERG current change (%, negative = inhibition) at 1uM” value worked out at 16.6%.

For `CN(C(=O)CC1C(=O)NCCN1Cc1ccccc1C(F)(F)F)C1CCOCC1` (centres unmarked), the “hERG current change (%, negative = inhibition) at 1uM” value is listed as 14.8%.

Take `CC(=O)c1cn(Cc2ccccc2)c(=O)n(Cc2ccc(F)cc2)c1=O`: the “hERG current change (%, negative = inhibition) at 1uM” value turned out to be 11%.

Turning to `CCCSc1ccc([C@H]2N[C@@](Cc3ccccc3)(C(=O)OC)[C@H]3C(=O)N(CC)C(=O)[C@@H]23)cc1.O=C(O)C(F)(F)F`, the “hERG current change (%, negative = inhibition) at 1uM” value is recorded as -4.21%.

In the case of `NC(=O)C1CCN(C(=O)COc2ccc3ccccc3c2)CC1`, the “hERG current change (%, negative = inhibition) at 1uM” value is recorded as 27.9%.

For the compound `COc1ccc(OC)c(-c2cc(C(=O)Nc3c(C)n(C)n(-c4ccccc4)c3=O)no2)c1`, the “hERG current change (%, negative = inhibition) at 1uM” value came out at 5.21%.

On to `CC(=O)c1ccc(N2CCN(c3ccc(C(N)=O)cc3[N+](=O)[O-])CC2)cc1`, for which the “hERG current change (%, negative = inhibition) at 1uM” value was -2.91%.

Consider `CCOC(=O)N1CCN(S(=O)(=O)c2c(C)nc3sccn3c2=O)CC1`, for which the “hERG current change (%, negative = inhibition) at 1uM” value worked out at 19.3%.

Regarding `Cc1cccc(-n2c(C)cc(/C=N/n3cnnc3)c2C)c1`, the “hERG current change (%, negative = inhibition) at 1uM” value came to 5.91%.

As for `CN(c1ccccc1)S(=O)(=O)c1ccc(C(=O)N2CCCC2)cc1`, the “hERG current change (%, negative = inhibition) at 1uM” value worked out at 12.2%.

With `O=C(NCCc1c[nH]c2ccccc12)OCCSS(=O)(=O)[O-].[Na+]`, the “hERG current change (%, negative = inhibition) at 1uM” value came out at 11.1%.

As for `Nc1cccc(Oc2ccc3c(c2)C(=O)NC3=O)c1`, the “hERG current change (%, negative = inhibition) at 1uM” value stood at 7.89%.

Turning to `Cc1ccc(Sc2ncccc2COC(=O)NC(C)C)cc1`, the “hERG current change (%, negative = inhibition) at 1uM” value was determined as 12.6%.

`CC(C)CCNC(=O)NC(=O)COC(=O)CNC(=O)C1CCCCC1`: the “hERG current change (%, negative = inhibition) at 1uM” value is recorded as 8.56%.

In the case of `CCCCN1CNC(=S)N(CCc2ccccc2)C1`, the “hERG current change (%, negative = inhibition) at 1uM” value was -3.18%.

As to `Cc1ccc(-n2ncc3c(=O)n(CC(=O)NCC4CCCO4)cnc32)cc1` (centres unmarked), the “hERG current change (%, negative = inhibition) at 1uM” value came to 5.75%.

As for `Cc1ccc(NC(=O)COc2ccc(-c3nnco3)cc2)cc1S(=O)(=O)N1CCOCC1`, the “hERG current change (%, negative = inhibition) at 1uM” value is 4.98%.

On to `CCOC(=O)C1CSC(CC(=O)Nc2ccc(OC(F)(F)F)cc2)C(=O)N1` (centres unmarked), for which the “hERG current change (%, negative = inhibition) at 1uM” value is -12%.

Consider `COC(=O)N/N=C(/c1ccccc1)C1CCCCC1`, for which the “hERG current change (%, negative = inhibition) at 1uM” value stood at 14.7%.

Turning to `O=C(COc1ccc(S(=O)(=O)N2CCOCC2)cc1)NCCN1CCOCC1`, the “hERG current change (%, negative = inhibition) at 1uM” value is reported as 13.5%.

With `Cc1cccc(NC(=O)C2CCN(S(=O)(=O)c3c(C)noc3C)CC2)c1`, the “hERG current change (%, negative = inhibition) at 1uM” value was found to be 5.23%.

On to `CCN(CC)S(=O)(=O)c1ccc(C(=O)NCCSc2c[nH]c3ccccc23)cc1`, for which the “hERG current change (%, negative = inhibition) at 1uM” value is -4.65%.

Turning to `CCOC(=O)c1ccc(NC(=S)NC2CCCC2)cc1`, the “hERG current change (%, negative = inhibition) at 1uM” value came out at 14.1%.

On to `CCC(C(=O)NCCCN(CC)Cc1ccccc1)n1nc(C)c2sc3ccccc3c2c1=O` (centres unmarked), for which the “hERG current change (%, negative = inhibition) at 1uM” value is -32.3%.

With `CCCCN(C(=O)CCCc1nc2ccccc2c(=O)[nH]1)c1c(N)n(CCCC)c(=O)[nH]c1=O`, the “hERG current change (%, negative = inhibition) at 1uM” value turned out to be 16.7%.

Consider `N/C(=N\OC(=O)Cc1ccccc1)c1cccnc1`, for which the “hERG current change (%, negative = inhibition) at 1uM” value is given as -9.03%.

As to `On1ccccc1=S`, the “hERG current change (%, negative = inhibition) at 1uM” value is recorded as 13.3%.

For the compound `Cc1cc(C(C)(C)C)oc1C(=O)N(CC(=O)NC1CCCC1)Cc1ccccc1`, the “hERG current change (%, negative = inhibition) at 1uM” value is given as 14.3%.
